# Data from the supplement of paper PMC8728848.
# Some of the results follow.
# What was measured:
# Experiment in all cases: glycan array binding signal (z-score within array); higher = stronger binding
# Settings in all cases: glycan notation: IUPAC condensed, linker removed
# [1] = biological target: Man(a1-2)Man(a1-3)[Man(a1-2)Man(a1-6)]Man(a1-6)[Man(a1-2)Man(a1-2)Man(a1-3)]Man
# Outline: (§1)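 Glycan array data were curated from 3228 arrays in the Consortium for Functional Glycomics database and kept only where the protein sequence was available. Glycan names were converted to IUPAC-condensed notation, and columns mapping to the same glycan were averaged. The binding signal is a within-array Z-score, averaged across arrays of the same protein sequence at different concentrations or buffers and across linkers. Negative Z-scores can be read as non-binding.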
# [2] = biological target: Man(a1-2)Man(a1-3)[Man(a1-2)Man(a1-6)]Man(a1-6)[Man(a1-2)Man(a1-2)Man(a1-3)]Man(b1-4)GlcNAc(b1-4)GlcNAc
# Outline: as §1
# [3] = biological target: Man(a1-2)Man(a1-3)[Man(a1-3)[Man(a1-6)]Man(a1-6)]Man(b1-4)GlcNAc(b1-4)GlcNAc
# Outline: as §1
# [4] = biological target: Man(a1-2)Man(a1-3)[Man(a1-6)]Man(a1-6)[Man(a1-2)Man(a1-3)]Man(b1-4)GlcNAc(b1-4)GlcNAc
# Outline: as §1
# [5] = biological target: Man(a1-2)Man(a1-6)[Man(a1-3)]Man(a1-6)[Man(a1-2)Man(a1-2)Man(a1-3)]Man
# Outline: as §1
# [6] = biological target: Man(a1-2)Man(a1-6)[Man(a1-3)]Man(a1-6)[Man(a1-2)Man(a1-2)Man(a1-3)]Man(b1-4)GlcNAc(b1-4)GlcNAc
# Outline: as §1
# Man(a1-3)[Man(a1-6)]Man = biological target: Man(a1-3)[Man(a1-6)]Man
# Outline: as §1
# [7] = biological target: Man(a1-3)[Man(a1-6)]Man(a1-6)[Man(a1-2)Man(a1-3)]Man(b1-4)GlcNAc(b1-4)GlcNAc
# Outline: as §1
# [8] = biological target: Man(a1-3)[Man(a1-6)]Man(a1-6)[Man(a1-3)]Man
# Outline: as §1
# [9] = biological target: Man(a1-3)[Man(a1-6)]Man(a1-6)[Man(a1-3)]Man(b1-4)GlcNAc(b1-4)GlcNAc
# Outline: as §1
# [10] = biological target: Man(a1-3)[Man(a1-6)]Man(b1-4)GlcNAc(b1-4)GlcNAc
# Outline: as §1
# [11] = biological target: Man(a1-3)[Man(a1-6)]Man(b1-4)GlcNAc(b1-4)[Fuc(a1-6)]GlcNAc
# Outline: as §1
# Man(a1-6)Man = biological target: Man(a1-6)Man
# Outline: as §1
# Man(b1-4)GlcNAc = biological target: Man(b1-4)GlcNAc
# Outline: as §1
# MurNAc(b1-4)GlcNAc = biological target: MurNAc(b1-4)GlcNAc
# Outline: as §1
# Neu5Ac(a2-3)Gal = biological target: Neu5Ac(a2-3)Gal
# Outline: as §1
# [12] = biological target: Neu5Ac(a2-3)Gal(b1-3)GalNAc
# Outline: as §1
# [13] = biological target: Neu5Ac(a2-3)Gal(b1-3)GalNAc(b1-3)Gal(a1-4)Gal(b1-4)Glc
# Outline: as §1
# [14] = biological target: Neu5Ac(a2-3)Gal(b1-3)GalNAc(b1-4)[Neu5Ac(a2-3)]Gal(b1-4)Glc
# Outline: as §1
# [15] = biological target: Neu5Ac(a2-3)Gal(b1-3)GalNAc(b1-4)[Neu5Ac(a2-8)Neu5Ac(a2-3)]Gal(b1-4)Glc
# Outline: as §1
# [16] = biological target: Neu5Ac(a2-3)Gal(b1-3)GalNAc6S
# Outline: as §1
# [17] = biological target: Neu5Ac(a2-3)Gal(b1-3)GlcNAc
# Outline: as §1
# [18] = biological target: Neu5Ac(a2-3)Gal(b1-3)GlcNAc(b1-2)Man
# Outline: as §1
# [19] = biological target: Neu5Ac(a2-3)Gal(b1-3)GlcNAc(b1-2)Man(a1-3)[GlcNAc(b1-4)][Neu5Ac(a2-3)Gal(b1-3)GlcNAc(b1-2)Man(a1-6)]Man(b1-4)GlcNAc(b1-4)GlcNAc
# Outline: as §1
# [20] = biological target: Neu5Ac(a2-3)Gal(b1-3)GlcNAc(b1-2)Man(a1-3)[Neu5Ac(a2-3)Gal(b1-3)GlcNAc(b1-2)Man(a1-6)]Man(b1-4)GlcNAc(b1-4)GlcNAc
# Outline: as §1
# [21] = biological target: Neu5Ac(a2-3)Gal(b1-3)GlcNAc(b1-3)Gal(b1-3)GlcNAc
# Outline: as §1
# [22] = biological target: Neu5Ac(a2-3)Gal(b1-3)GlcNAc(b1-3)Gal(b1-4)GlcNAc
# Outline: as §1
# [23] = biological target: Neu5Ac(a2-3)Gal(b1-3)GlcNAc(b1-3)GalNAc
# Outline: as §1
# [24] = biological target: Neu5Ac(a2-3)Gal(b1-3)GlcNAc(b1-4)Gal(b1-4)Glc
# Outline: as §1
# [25] = biological target: Neu5Ac(a2-3)Gal(b1-3)GlcNAc(b1-6)GalNAc
# Outline: as §1
# [26] = biological target: Neu5Ac(a2-3)Gal(b1-3)GlcNAc6S
# Outline: as §1
# [27] = biological target: Neu5Ac(a2-3)Gal(b1-3)[Fuc(a1-4)]GlcNAc
# Outline: as §1
# [28] = biological target: Neu5Ac(a2-3)Gal(b1-3)[Fuc(a1-4)]GlcNAc(b1-3)Gal(b1-3)[Fuc(a1-4)]GlcNAc
# Outline: as §1
# [29] = biological target: Neu5Ac(a2-3)Gal(b1-3)[Fuc(a1-4)]GlcNAc(b1-3)Gal(b1-4)[Fuc(a1-3)]GlcNAc
# Outline: as §1
# [30] = biological target: Neu5Ac(a2-3)Gal(b1-3)[GlcNAc(b1-6)]GalNAc
# Outline: as §1
# [31] = biological target: Neu5Ac(a2-3)Gal(b1-3)[Neu5Ac(a2-3)Gal(b1-4)]GlcNAc
# Outline: as §1
# [32] = biological target: Neu5Ac(a2-3)Gal(b1-3)[Neu5Ac(a2-6)]GalNAc
# Outline: as §1
# [33] = biological target: Neu5Ac(a2-3)Gal(b1-3)[Neu5Ac(a2-6)]GlcNAc(b1-3)[Fuc(a1-3)[Gal(b1-4)]GlcNAc(b1-6)]Gal(b1-4)Glc
# Outline: as §1
# [34] = biological target: Neu5Ac(a2-3)Gal(b1-3)]Neu5Ac(a2-3)Gal(b1-4)]GlcNAc
# Outline: as §1
# Neu5Ac(a2-3)Gal(b1-4)Glc = biological target: Neu5Ac(a2-3)Gal(b1-4)Glc
# Outline: as §1
# [35] = biological target: Neu5Ac(a2-3)Gal(b1-4)GlcNAc
# Outline: as §1
# [36] = biological target: Neu5Ac(a2-3)Gal(b1-4)GlcNAc(b1-2)Man
# Outline: as §1
# [37] = biological target: Neu5Ac(a2-3)Gal(b1-4)GlcNAc(b1-2)Man(a1-3)[GlcNAc(b1-4)][Neu5Ac(a2-3)Gal(b1-4)GlcNAc(b1-2)Man(a1-6)]Man(b1-4)GlcNAc(b1-4)GlcNAc
# Outline: as §1
# [38] = biological target: Neu5Ac(a2-3)Gal(b1-4)GlcNAc(b1-2)Man(a1-3)[Neu5Ac(a2-3)Gal(b1-4)GlcNAc(b1-2)Man(a1-6)]Man(b1-4)GlcNAc(b1-4)GlcNAc
# Outline: as §1
# [39] = biological target: Neu5Ac(a2-3)Gal(b1-4)GlcNAc(b1-2)Man(a1-3)[Neu5Ac(a2-3)Gal(b1-4)GlcNAc(b1-2)Man(a1-6)]Man(b1-4)GlcNAc(b1-4)[Fuc(a1-6)]GlcNAc
# Outline: as §1
binder,measurement,setting,value
"Epa7 (Candida glabrata), Q6DTM6_CANGB (protein) MGSSHHHHHHSSGLVPRGSHMKDDYSSFLSNNNLGWTDPTEFPLGCSPNVTTPKNGLSMELYSYDLRKNGSYPCWDAAYLDPNYPRTGYKSHRLLAKVDGVTGNINFYYHATKGCTPEIDHLPASYNYPKPLTMTNFTMLLYGYFKPKVTGYHTFTISADDLLFVNFGAGNAFDCCKRESSADDFGNYQAYAVWGSQTAKDDLTVHLDAGLYYPIRIFFNNREYDAELSLTLKTESDSNPVIDFSDYFYSFDDTKDGCPGLVSYDTS",glycan array binding signal (z-score),[1],-0.239
same,glycan array binding signal (z-score),[2],-0.231
same,glycan array binding signal (z-score),[3],-0.277
same,glycan array binding signal (z-score),[4],-0.259
same,glycan array binding signal (z-score),[5],-0.237
same,glycan array binding signal (z-score),[6],-0.235
same,glycan array binding signal (z-score),Man(a1-3)[Man(a1-6)]Man,-0.244
same,glycan array binding signal (z-score),[7],-0.223
same,glycan array binding signal (z-score),[8],-0.226
same,glycan array binding signal (z-score),[9],-0.255
same,glycan array binding signal (z-score),[10],-0.245
same,glycan array binding signal (z-score),[11],-0.229
same,glycan array binding signal (z-score),Man(a1-6)Man,-0.239
same,glycan array binding signal (z-score),Man(b1-4)GlcNAc,-0.255
same,glycan array binding signal (z-score),MurNAc(b1-4)GlcNAc,-0.238
same,glycan array binding signal (z-score),Neu5Ac(a2-3)Gal,-0.258
same,glycan array binding signal (z-score),[12],-0.208
same,glycan array binding signal (z-score),[13],-0.251
same,glycan array binding signal (z-score),[14],-0.252
same,glycan array binding signal (z-score),[15],-0.06
same,glycan array binding signal (z-score),[16],-0.224
same,glycan array binding signal (z-score),[17],-0.26
same,glycan array binding signal (z-score),[18],-0.228
same,glycan array binding signal (z-score),[19],-0.201
same,glycan array binding signal (z-score),[20],-0.233
same,glycan array binding signal (z-score),[21],-0.256
same,glycan array binding signal (z-score),[22],-0.261
same,glycan array binding signal (z-score),[23],-0.21
same,glycan array binding signal (z-score),[24],-0.228
same,glycan array binding signal (z-score),[25],-0.204
same,glycan array binding signal (z-score),[26],-0.252
same,glycan array binding signal (z-score),[27],-0.258
same,glycan array binding signal (z-score),[28],-0.196
same,glycan array binding signal (z-score),[29],-0.242
same,glycan array binding signal (z-score),[30],-0.23
same,glycan array binding signal (z-score),[31],-0.266
same,glycan array binding signal (z-score),[32],0.014
same,glycan array binding signal (z-score),[33],-0.199
same,glycan array binding signal (z-score),[34],-0.228
same,glycan array binding signal (z-score),Neu5Ac(a2-3)Gal(b1-4)Glc,-0.257
same,glycan array binding signal (z-score),[35],-0.26
same,glycan array binding signal (z-score),[36],-0.205
same,glycan array binding signal (z-score),[37],-0.229
same,glycan array binding signal (z-score),[38],-0.244
same,glycan array binding signal (z-score),[39],-0.232
